Numbering of substitutions follows the chain as printed. In names and notes the source's numbering stands. These are yes or no findings as the source states them, for the method shown. In cells and extracts the contact can be indirect. Some entries that bind do so weakly or less than the wild type. For some assays here: Tags and fused reporters may be left off the sequences shown.
T1: CBDO (Halobacterium salinarum) (UniProt O51968)
T1 sequence: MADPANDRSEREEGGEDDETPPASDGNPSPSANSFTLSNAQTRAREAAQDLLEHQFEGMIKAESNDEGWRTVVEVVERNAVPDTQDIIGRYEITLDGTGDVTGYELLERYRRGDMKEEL

T2: CBDA (Halobacterium salinarum) (UniProt P08958)
T2 sequence: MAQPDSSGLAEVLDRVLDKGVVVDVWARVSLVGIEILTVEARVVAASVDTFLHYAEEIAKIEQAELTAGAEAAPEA

T3: GvpC fused to NGFP or CGFP (Halobacterium salinarum) (UniProt P24574)
T3 sequence: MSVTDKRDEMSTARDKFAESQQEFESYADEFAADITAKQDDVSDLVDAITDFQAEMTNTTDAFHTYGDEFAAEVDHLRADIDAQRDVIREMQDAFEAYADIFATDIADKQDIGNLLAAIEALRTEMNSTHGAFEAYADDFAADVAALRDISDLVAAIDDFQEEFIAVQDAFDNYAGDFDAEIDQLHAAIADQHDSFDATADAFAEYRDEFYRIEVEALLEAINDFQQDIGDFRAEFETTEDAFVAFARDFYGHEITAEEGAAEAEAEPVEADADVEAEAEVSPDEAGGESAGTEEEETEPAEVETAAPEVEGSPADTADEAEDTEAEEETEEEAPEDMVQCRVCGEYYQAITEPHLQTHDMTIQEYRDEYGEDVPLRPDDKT

T4: GvpC N-terminal fragment Nterm (Halobacterium salinarum) (UniProt P24574)
T4 sequence: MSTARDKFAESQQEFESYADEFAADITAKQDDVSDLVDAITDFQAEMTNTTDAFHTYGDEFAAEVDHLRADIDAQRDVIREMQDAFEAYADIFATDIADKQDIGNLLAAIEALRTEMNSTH

T5: GvpA fragment A20-47 (Halobacterium salinarum) (UniProt P08958)
T5 sequence: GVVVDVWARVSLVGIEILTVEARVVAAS

T6: GvpA fragment A1-43 (Halobacterium salinarum) (UniProt P08958)
T6 sequence: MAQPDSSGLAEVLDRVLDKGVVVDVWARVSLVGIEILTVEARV

T7: GvpO fused to NGFP or CGFP (Halobacterium salinarum) (UniProt O51968)
T7 sequence: T1 sequence

T8: GvpA fragment A44-76 (Halobacterium salinarum) (UniProt P08958)
T8 sequence: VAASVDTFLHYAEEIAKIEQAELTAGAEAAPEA

T9: GvpA fused to NGFP or CGFP (Halobacterium salinarum) (UniProt P08958)
T9 sequence: T2 sequence

B1: GvpA (protein, UniProt P08958 1-76)
chain: T2 sequence
B2: GvpF (protein, UniProt Q9HI21 1-213)
chain: MTENLYTYGIIEQEDLELDVEGVAGAEQVYTVDYKTLSAVVSDIDTTDPERTDEDVEAHNNVLQEVLKHEEERTVVPMSFGMAFKSARTLKGVLRGARRALRSTLNDIEGTVELGVKILGPGDDTVPREEIQENVTDQLADLSINETENDLFTDRLIINKSYLVDFEKRDAFDSAIDDVEAEYDELTIQYTGPWPPYNFVDIHIGAEQQQGGR
B3: GvpG (protein, UniProt P24371 1-83)
chain: MFIIDDLFVSPFFSLLDILQTMALDEMYDTKSIRDDIKENQLLYEVGERSDEEYQQRKQALESQLEMAEQVQEQMRDRMEVKK
B4: GvpH (protein, UniProt P24372 1-182)
chain: MVPDENDDASDDQSSQLSGLLDQLHTLVEVLADIEEEGGHRHESGRIDRGNARIDYDYDVSIGLGRADGSSYDEEPSSNRSRSEQRSGQQRTTEDSIHVETRGGTSGDELVVVADLPGVTDDDVDVALDTDEQALTLRVDDDVVERVVLDRPDVAITDMTLRNQVLEIRLARTSDTDGGEST
B5: GvpM (protein, UniProt P24377 1-84)
chain: MEPTKDETHAIVEFVDVLLRDGAVIQADVIVTVADIPLIGISLRAAIAGMTTMTEYGLFEEWDAAHRQQSEAFTTSPTADRRED
B6: GvpC N-terminal fragment Nterm (domain or fragment, UniProt P24574 10-130)
chain: T4 sequence
B7: GvpC C-terminal fragment Cterm (domain or fragment, UniProt P24574 329-382)
chain: ETEEEAPEDMVQCRVCGEYYQAITEPHLQTHDMTIQEYRDEYGEDVPLRPDDKT
B8: GvpL fused to NGFP or CGFP (protein, UniProt Q9HI27 1-281)
chain: MTDHRPSPEEEQTTANEERTVSNGRYLYCVVDTTSSESATLSTTGVDDNPVYVVEADGVGAVVHDCETVYETEDLEQVKRWLVTHQQVVDAASDAFGTPLPMRFDTVLEGGDASIERWLEDHYEGFRDELASFAGVWEYRINLLWDSAPFEETIADRDDRLRELRQRQQQSGAGKKFLLEKQSDQRLQELKRERRTELADQLKEAITPVVNDLTEQDTNTPLQDEHSSIEKEQIVRFAVLADEDDETALGDRLDTIVEHEGVEIRFTGPWPPYTFAPDIGK
B9: GvpH fused to NGFP or CGFP (protein, UniProt P24372 1-182)
chain: B4 chain
B10: GvpF fused to NGFP or CGFP (protein, UniProt Q9HI21 1-213)
chain: B2 chain
B11: GvpI fused to NGFP or CGFP (protein, UniProt Q9HI24 1-144)
chain: MSDKQQQKHKQKARQARVKAQINRDKARRNLLRQREKLARRRTRNRKQSEPRRDDSDGDDTDGETVKNPAAHSTMPPQKSNAENAVRNSHSTVPKTPKYSDVTARERLYGQRLHQKTAGGNSEASAPSDESASGSPTEDEVNDE
B12: GvpF variant D15A (protein, UniProt Q9HI21 1-213)
chain: B2 chain with D15A
B13: GvpF variant D15R (protein, UniProt Q9HI21 1-213)
chain: B2 chain with D15R
B14: GvpF variant D19A (protein, UniProt Q9HI21 1-213)
chain: B2 chain with D19A
B15: GvpF variant D19R (protein, UniProt Q9HI21 1-213)
chain: B2 chain with D19R
B16: GvpF variant D53A (protein, UniProt Q9HI21 1-213)
chain: B2 chain with D53A
B17: GvpF variant D53R (protein, UniProt Q9HI21 1-213)
chain: B2 chain with D53R
B18: GvpF variant R73A (protein, UniProt Q9HI21 1-213)
chain: B2 chain with R73A
B19: GvpF variant K85A (protein, UniProt Q9HI21 1-213)
chain: B2 chain with K85A
B20: GvpF variant K85E (protein, UniProt Q9HI21 1-213)
chain: B2 chain with K85E
B21: GvpF variant D154A (protein, UniProt Q9HI21 1-213)
chain: B2 chain with D154A
B22: GvpF variant D154R (protein, UniProt Q9HI21 1-213)
chain: B2 chain with D154R

The binders below were run against T1, CBDO (Halobacterium salinarum) (assay: pull-down; CBD-tagged bait and one untagged prey co-produced in Hfx. volcanii CBDX/Y transformants; lysate in 2.5 M KCl buffer pH 8.0 bound to cellulose (Avicel), six washes, elution with ethylene glycol, Western analysis with Gvp antisera).
For B1, the binding was “binds”.

What follows are binders tested against T2, CBDA (Halobacterium salinarum) in the same assay as above.
B2 was tested, and the binding was “binds”. B3 was tested, and the binding was “binds”. B4 was tested, and the binding was “binds”. With B5 the binding was “binds”.

The binders below were run against T3, GvpC fused to NGFP or CGFP (Halobacterium salinarum) (assay: split reporter; split-GFP (NGFP and CGFP of salt-stable mGFP2) in Hfx. volcanii transformants, 24 h 37 °C then 24 h 30 °C; relative fluorescence (rf) against the wild type; the highest of eight tag combinations is given).
B6 was tested, and the binding was “binds”. In the case of B7, the binding is reported as “binds”.

What follows are binders tested against T4, GvpC N-terminal fragment Nterm (Halobacterium salinarum) in the same assay as above.
With B8 the binding was “binds”. In the case of B9, the binding is reported as “binds”.

What follows are binders tested against T5, GvpA fragment A20-47 (Halobacterium salinarum) in the same assay as above.
With MAQPDSSGLAEVLDRVLDKGVVVDVWARVSLVGI (domain or fragment, UniProt P08958 1-34) [GvpA fragment A1-34] the binding was “no binding (tested: rf ≤ 0.48)”. For MAQPDSSGLAEVLDRVLDKGVVVDVWARVSLVGIEILTVEARV (domain or fragment, UniProt P08958 1-43) [GvpA fragment A1-43], the binding was “no binding (tested: rf ≤ 0.48)”.

These binders were tested against T6, GvpA fragment A1-43 (Halobacterium salinarum) in the same assay as above.
With MAQPDSSGLAEVLDRVLDKGVVVDVWARVSLVGI (domain or fragment, UniProt P08958 1-34) [GvpA fragment A1-34] the binding was “no binding (tested: rf ≤ 0.48)”.

The binders below were run against T7, GvpO fused to NGFP or CGFP (Halobacterium salinarum) in the same assay as above.
In the case of B10, the binding is reported as “binds”. B11 was tested, and the binding was “binds”. In the case of B8, the binding is reported as “binds”.

These binders were tested against T8, GvpA fragment A44-76 (Halobacterium salinarum) in the same assay as above.
For MAQPDSSGLAEVLDRVLDKGVVVDVWARVSLVGI (domain or fragment, UniProt P08958 1-34) [GvpA fragment A1-34], the binding was “no binding (tested: rf ≤ 0.48)”. For MAQPDSSGLAEVLDRVLDKGVVVDVWARVSLVGIEILTVEARV (domain or fragment, UniProt P08958 1-43) [GvpA fragment A1-43], the binding was “no binding (tested: rf ≤ 0.48)”. For GVVVDVWARVSLVGIEILTVEARVVAAS (domain or fragment, UniProt P08958 20-47) [GvpA fragment A20-47], the binding was “no binding (tested: rf ≤ 0.48)”.

The binders below were run against T9, GvpA fused to NGFP or CGFP (Halobacterium salinarum) in the same assay as above.
B6 was tested, and the binding was “no binding (tested: rf < 2.5)”. With B7 the binding was “no binding (tested: rf < 2.5)”. In the case of B12, the binding is reported as “binds”. For B13, the binding was “binds”. With B14 the binding was “binds”. With B15 the binding was “binds”. In the case of B16, the binding is reported as “binds”. B17 was tested, and the binding was “binds”. B18 was tested, and the binding was “binds”. B19 was tested, and the binding was “binds”. For B20, the binding was “binds”. In the case of B21, the binding is reported as “binds”. With B22 the binding was “binds”.

These binders were tested against T2, CBDA (Halobacterium salinarum) (assay: pull-down; CBDA co-produced with GvpF through GvpM all together (CBDA/F-M transformants); cellulose matrix, elution fraction probed by Western analysis with each antiserum).
B2 was tested, and the binding was “binds”. For B3, the binding was “binds”. For B4, the binding was “binds”. With B5 the binding was “binds”.
